From PubChem BioAssay AID485313 (National Center for Advancing Translational Sciences (NCATS), 2010)
The whole screen tested about 320,000 compounds, of which about 7,600 (2.4%) were called active. Inconclusive means that the source gave no clear call. Such entries were picked first, then a sample of the others. Calls come from the whole dose curve; as a rule, active = well fitted activation curve with a large enough effect; inconclusive = small, poorly fitted or top-dose-only effect; inactive = no such curve, though single readings can be large or run the other way. Potencies beside an inconclusive call are fits to weak or partial responses and may not hold up.

experiment: qHTS Assay for NPC1 Promoter Activators; conditions: Huh7 NPC1 promoter luciferase reporter, 24 h; series mostly up to 9.22 µM; note: nearly all actives have a fitted effect of over 60% in size;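 for activation: reporter is driven by a mutant NPC1 promoter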
In short: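 Readout is luciferase luminescence, reflecting NPC1 promoter activation in stably transfected Huh7 cells after 24 h compound exposure at 37 °C in reduced-serum medium with 10% FBS.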
Potency is the fitted concentration of half-maximal effect; tags give direction and shape of the fitted curve.

Potency, active:
CCCOc1ccc(C(=O)Nc2ccc3c(c2)OCCO3)cc1 0.355 µM, CCCc1ccc2oc(C(=O)N3CCC(COC)C3)c(C)c2c1 (configuration not stated) 2.82 µM, CCOc1ccc(-c2cc(C(=O)OC)[nH]n2)cc1 3.16 µM, COc1cccc(C(=O)Nc2nnc(SCC(=O)Nc3ccc(NC(C)=O)cc3)s2)c1 2.82 µM, CN(C)c1ccc(/C=N/N=C/c2ccccc2O)cc1 0.447 µM, Cc1cccn2cc(-c3cc4ccccc4oc3=O)nc12 0.112 µM, O=C(NCc1ccc(Cl)cc1)c1cnn2ccccc12 3.98 µM, Cc1ccc(C(=O)Nc2cccc(C(=O)O)c2)cc1S(=O)(=O)N1CCOCC1 1.26 µM, O=C(Cc1ccccc1)Nc1ccc(NC(=O)c2ccco2)nc1 2.24 µM, O=C(Nc1ccc2c(c1)nc1n2CCSC1)c1ccco1 0.316 µM, CCOC(=O)c1c(N)sc(C(=O)Nc2ccccc2F)c1C 2.51 µM, Cc1ccc(NC(=S)c2nc3ccccc3[nH]2)c(C)c1 3.55 µM, O=C(Nc1nc2ccsc2c(=O)s1)c1ccc(F)cc1Cl 0.708 µM, CCOc1cc(/C=N/Nc2cccc(C(=O)O)c2)ccc1OC(=O)c1ccccc1 0.0891 µM, O=C(NNC(=S)Nc1ccccc1Cl)c1ccccc1 2.51 µM, CC1(C)Cc2c(sc(NC(=O)Nc3ccccc3)c2C(N)=O)CO1 4.47 µM, c1ccc(-n2nc3c(ccc4cnnc43)[nH]2)cc1 2.51 µM

Potency, inactive:
O=C(NN=C1C2CC3CC(C2)CC1C3)c1ccncc1, CCCn1c(N)c(NCCN2CCOCC2)c(=O)[nH]c1=O, COc1ccccc1N1CCN(S(=O)(=O)CCNC(=O)Cc2ccc(F)cc2)CC1, CC1(C)c2ccccc2N2CC(=O)N(CC(N)=O)C21C (configuration not stated), Cc1c2cnn(CC(=O)NCCCN3CCCCC3C)c(=O)c2c(C)n1Cc1ccccc1 (configuration not stated), COc1cc(OC)cc(-c2cc3nc(C)c(CCC(=O)NC(C)CCc4ccco4)c(C)n3n2)c1 (configuration not stated), CC1CCCCC1NC(=O)CCNS(=O)(=O)c1ccc2c(c1)CCC(=O)N2 (configuration not stated), CC1=Nc2ccc(C)cc2/C1=C/c1c(N)n2oc(C)cc2nc1=O, Oc1cc2ccccc2cc1-c1n[nH]c(=S)o1, COc1cccc(/C=C/C(=O)OCC(=O)c2c[nH]c3ccccc23)c1OC, O=C1c2ccccc2CCc2ccc(Br)cc21, COc1cc(C2C(=O)c3ccccc3C2=O)ccc1O, CCc1cc(-c2[nH]ncc2-c2ccc3c(c2)OCO3)c(O)cc1O, N/C(=N\OCC(=O)Nc1ccccc1)c1nonc1N, CCOC(=O)C(=O)NCc1ccc(/C=C2/N=C(C)C(C(=O)OCC)=C2O)o1, Cc1ccn(C(=O)c2ccc(NC(=O)CC(C)C)cc2)n1

Potency, inconclusive:
COc1ccc2oc(C(=O)NCc3ccco3)c(C)c2c1 3.55 µM [activator, single point], N/C(=N\OC(=O)c1ccc(Cl)c(Cl)c1)c1cccc(CSc2ccccn2)c1 4.47 µM [activator, single point], Cc1cc(C(=O)CSc2nc3ccccc3[nH]2)c(C)n1CC1CCCO1 (configuration not stated) 0.1 µM [activator, full curve], COc1cccc2sc(Nc3nc(C)c(C(C)=O)s3)nc12 5.01 µM [activator, single point], N#C/C(=N\Nc1ccc(Cl)c(Cl)c1)C(=O)C1CC1 4.47 µM [activator, partial curve], CCN=C1S/C(=C\c2sccc2C)C(=O)N1CC 3.16 µM [activator, partial curve], O=C(c1nc2ccccc2[nH]1)c1ccccc1[N+](=O)[O-] 3.98 µM [activator, single point], Clc1cccc2sc(N3CCN(c4ccccc4)CC3)nc12 3.98 µM [activator, partial curve], Clc1ccc(OCc2nc(-c3ccncc3)no2)cc1 2.82 µM [activator, partial curve], COc1cc(/C=N/NC(=O)c2ccc(O)cc2)ccc1OCC(=O)Nc1cccc([N+](=O)[O-])c1 3.16 µM [activator, partial curve], Cc1ccc(NC(=O)Nc2ccc(F)cc2)cc1Cl 2.82 µM [activator, partial curve], Cn1/c(=N/NC(=O)c2ccccc2F)sc2ccccc21 3.98 µM [activator, partial curve], O=C(N/N=C/c1cccs1)c1n[nH]c2c1CCC2 0.708 µM [activator, partial curve], Cc1ccc2c(c1)[nH]c1c(=O)n(Cc3ccco3)cnc12 2.82 µM [activator, partial curve], Cc1nc(-c2ccc3c(c2)CCC(=O)N3)cs1 5.01 µM [activator, single point], COc1ccc(OCc2cc(C(=O)N(C)CCC3CCOCC3)no2)c(Cl)c1 3.16 µM [activator, partial curve], O=C(Nc1ccccc1C(=O)N/N=C/c1ccncc1)c1ccccc1 3.55 µM [activator, single point], CC(=O)c1cccc(NC(=O)CSCc2ccccc2)c1 2.24 µM [activator, partial curve], O=C1c2ccccc2C(=O)c2c(Nc3ccc(CCO)cc3)ccc(O)c21 2.51 µM [activator, partial curve], CCOC(=O)c1ccc(NC(=O)c2nn(CC)cc2Br)cc1 1.58 µM [activator, partial curve], CCOC(=O)c1sc(NC(=O)c2ccc(Cl)s2)cc1C 6.31 µM [activator, partial curve], Cc1ccc(N=Nc2c(N)n(-c3ccccc3)[nH]c2=O)cc1 3.55 µM [activator, single point], O=C(O)c1cccc(N/N=C/c2ccc(OC(F)(F)F)cc2)c1 1.58 µM [activator, partial curve, poor fit], CCCCCC(=O)Nc1ccc(Cl)cn1 3.16 µM [activator, partial curve], OC[C@H]1OC(Nc2ccc(N=Nc3ccccc3)cc2)[C@@H](O)[C@@H](O)[C@@H]1O (some centres not stated) 2.82 µM [activator, partial curve], Cc1ccccc1OCC(=O)O/N=C(\N)c1ccncc1 3.16 µM [activator, partial curve], Cc1ccc(C)c(NC(=O)c2cc3ccccc3o2)c1 3.16 µM [activator, single point], Oc1ccccc1C1NN=C(c2ccccc2)S1 (configuration not stated) 3.55 µM [activator, single point], CCCCOc1ccc(CSc2n[nH]c(C)n2)cc1 3.55 µM [activator, single point], CCc1nnc(NC(=S)Nc2ccccc2)s1 5.62 µM [activator, single point], O=C(NNC(=S)Nc1ccc(Cl)cc1)c1cccs1 3.55 µM [activator, single point], CCOC(OCC)c1ccc(/C=C\c2nccc(N)n2)cc1 3.16 µM [activator, partial curve], COc1cccc(-c2nnc(-c3ccc(C(F)(F)F)cc3)o2)c1 4.47 µM [activator, single point], Cc1cc(NC(=O)c2ccco2)ccc1-n1cnnn1 3.55 µM [activator, partial curve], Cc1ccc2nc(-c3ccc(NC(=S)NC4CC(C)(C)NC(C)(C)C4)cc3)sc2c1 3.16 µM [activator, single point], Cc1nc(-c2ccc(NC(=O)Cc3ccccc3)cc2)cs1 3.55 µM [activator, partial curve], COc1ccccc1N(Cc1ccccc1)S(=O)(=O)c1cccc(C(=O)Nc2cc(C)ccn2)c1 5.62 µM [activator, single point], COc1cc(Cl)c(C)cc1NC(=O)c1cccc(OC)c1OC 5.62 µM [activator, single point], O=C(Nc1cccc(C(=O)O)c1)/C(=C\c1ccc2c(c1)OCO2)NC(=O)c1ccc(Br)o1 3.55 µM [activator, single point], C/C(=N/NC(=O)c1ccco1)c1ccc(NC(=O)c2ccc(Br)o2)cc1 5.62 µM [activator, single point], CC(C)(C)c1ccc(-c2nc(N)nc(N)n2)cc1 3.55 µM [activator, partial curve], Cc1cc(C)c(NC(=O)CN2C(=O)CC(C)S(=O)(=O)c3ccccc32)c(C)c1 (configuration not stated) 0.891 µM [activator, single point], O=C(COC(=O)c1cccs1)c1ccc2ccccc2c1 3.16 µM [activator, single point], NNC(=O)c1ccc(COc2ccc3c(c2)CCC3)o1 1 µM [activator, partial curve]
